# Hit rate of the full screen: of about 350,000 compounds, about 260 (0.074%) were called active. This list was built around the results that the source calls inconclusive (neither active nor inactive); the mix of calls is not that of the screen. Calls follow the shape of the dose curve; as a rule, active = well fitted inhibition curve with a large enough effect; inconclusive = small, poorly fitted or top-dose-only effect; inactive = no such curve, though single readings can be large or run the other way. Where the call is inconclusive, the potency comes from a doubtful curve fit.
# Molecular target: Ferritin light chain (Equus caballus) (UniProt P02791)
# Experiment: qHTS Assay for Identification of Novel General Anesthetics; also: nearly all actives have a fitted effect of over 20% in size
# Conditions: apoferritin/1-aminoanthracene competitive binding, fluorescence; series mostly up to 77.5 µM
# Summary of the method: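 Concentration-response curves derived by four-parameter Hill fitting of normalized fluorescence, where compounds displaced 1-AMA from 10 uM horse apoferritin following a brief 10 min room-temperature incubation; propofol titration acted as positive control.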
# Potency is read from the fitted curve at half-maximal effect; tags tell the direction and shape of the fitted curve.
# Chain of UniProt P02791 (P02791 whole entry, looked up): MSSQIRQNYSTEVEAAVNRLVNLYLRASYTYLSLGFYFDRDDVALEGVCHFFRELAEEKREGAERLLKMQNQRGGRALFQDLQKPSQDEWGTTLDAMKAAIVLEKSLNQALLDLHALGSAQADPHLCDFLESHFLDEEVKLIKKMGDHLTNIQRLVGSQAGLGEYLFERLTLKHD
row,SMILES,Potency
1,COC(=O)c1ccc(C(NC(=O)OCc2ccccc2)/C(F)=C/[C@@H](C)C(=O)N[C@@H](CO)Cc2ccccc2)cc1 (some centres undefined),inactive
2,CC(C)(C)OC(=O)NC(Cc1ccccc1)C(=O)NC(CSC1CCCCO1)C(=O)NN (centres undefined),"inconclusive: 39.8 µM [inhibitor, single point]"
3,O=C(Nc1ccc(S(=O)(=O)N2CCOCC2)cc1)c1cc([N+](=O)[O-])ccc1Cl,"inconclusive: 28.2 µM [inhibitor, single point]"
4,COC(=O)c1ccc(COC(=O)c2ccc(CS(=O)(=O)c3ccc(C)cc3)cc2)cc1,inactive
5,CCOc1ccc(NC(=O)c2ccc3c(c2)CCN3S(=O)(=O)CC)cc1,inactive
6,CCCOC(=O)CN1C(=O)c2ccccc2C1=O,"inconclusive: 50.1 µM [inhibitor, partial curve]"
7,O=C(c1ccc(F)cc1)C(CCCCCC(CN1CCOCC1)C(=O)c1ccc(F)cc1)CN1CCOCC1 (centres undefined),"inconclusive: 31.6 µM [inhibitor, partial curve]"
8,CCOC(=O)C1(Cc2cccc(Cl)c2)CCCN(C(=O)c2ccoc2C)C1 (centres undefined),"inconclusive: 44.7 µM [inhibitor, single point]"
9,Cc1nonc1OCCNC(=O)C12CC3CC(CC(C3)C1)C2,"inconclusive: 50.1 µM [inhibitor, single point]"
10,COc1ccc2sc(N(Cc3cccnc3)C(=O)C3CCCCC3)nc2c1,"inconclusive: 8.91 µM [inhibitor, partial curve]"
11,CCCCOc1ccc(C(=O)N/C(=C\c2ccc(OC)cc2)C(=O)OCc2ccco2)cc1,"inconclusive: 31.6 µM [inhibitor, partial curve]"
12,CCCCOc1ccc(C2=NC(c3ccncc3)=Nc3ccc(OCC)cc3N2)cc1,"inconclusive: 31.6 µM [inhibitor, partial curve]"
13,FC(F)(F)c1cc(-c2ccco2)nc(NCc2cccs2)n1,inactive
14,CC(=O)Nc1ccc(S(=O)(=O)Oc2cccc(N3C(=O)C4CCCCC4C3=O)c2)cc1 (centres undefined),"inconclusive: 31.6 µM [inhibitor, partial curve]"
15,Cc1ccc2c(Cl)cc(Cl)c(O)c2n1,inactive
16,COc1ccc(/C=N\NC(=O)c2cc(O)c(O)c(O)c2)cc1COc1ccc(C(=O)OCC(C)C)cc1,"inconclusive: 10 µM [inhibitor, partial curve]"
17,COc1ccc(NC(=O)CSc2nc3nc(C)c(Cc4ccccc4)c(C)n3n2)cc1OC,"inconclusive: 28.2 µM [inhibitor, partial curve]"
18,S=C(NCc1ccccc1)NCc1cccc(Cl)c1,inactive
19,COc1cc(CNc2ccc3[nH]c(=O)[nH]c3c2)ccc1OCc1ccc(Cl)cc1,"inconclusive: 31.6 µM [inhibitor, partial curve]"
20,CCc1cccc2c1NC(=O)C2(O)N1CCCC(C)C1 (centres undefined),"inconclusive: 31.6 µM [inhibitor, partial curve]"
21,COc1cccc(CSc2nc3ccccc3cc2C=O)c1,"inconclusive: 28.2 µM [inhibitor, partial curve]"
22,S=c1[nH]nc(-c2ccccc2)n1/N=C/c1cccc(Br)c1,inactive

row,SMILES,Potency
1,COc1cccc2cc(-c3ccnc(N)n3)oc12,"inconclusive: 0.0063 µM [inhibitor, full curve]"
2,COc1cccc(NC(=O)COc2ccccc2)c1,"inconclusive: 25.1 µM [inhibitor, partial curve]"
3,C=C1CCC(OC(C)=O)/C(C)=C/CC2[C@H]1CC2(C)C (some centres undefined),"inconclusive: 35.5 µM [inhibitor, single point]"
4,Cc1cc(F)ccc1S(=O)(=O)Nc1ccccc1C(=O)Nc1ncn[nH]1,inactive
5,O=C(c1ccc2c(=O)n3c(nc2c1)CCCCC3)N1CCN(c2cccc(Cl)c2)CC1,"inconclusive: 31.6 µM [inhibitor, partial curve]"
6,Fc1cccc2sc(Nc3nc4cc5c(cc4s3)OCCO5)nc12,inactive
7,CCc1ccccc1NC(=S)N(Cc1cccc(C)c1)c1cccnc1,"inconclusive: 15.8 µM [inhibitor, partial curve]"
8,Cc1cc2oc(=O)cc(CSc3nnc(-c4cccs4)o3)c2cc1C(C)C,"inconclusive: 3.16 µM [inhibitor, partial curve]"
9,Cc1noc(C)c1COC(=O)Cc1ccc(Cl)c(Cl)c1,"inconclusive: 15.8 µM [inhibitor, partial curve]"
10,O=S(=O)(Nc1ccc2c(c1)oc1ccccc12)N1CCCC1,"inconclusive: 20 µM [inhibitor, partial curve]"
11,O=C(CN1CCCc2ccccc21)NCCc1ccc(Cl)cc1,"inconclusive: 39.8 µM [inhibitor, single point]"
12,CC(NC(=O)CCCCCCN1C(=O)c2ccccc2C1=O)c1ccc2c(c1)CCCC2 (centres undefined),"inconclusive: 31.6 µM [inhibitor, partial curve, poor fit]"
13,CCCn1c(=O)c(C(=O)Nc2ncccc2C)c(O)c2ccccc21,"inconclusive: 50.1 µM [inhibitor, single point]"
14,OC(CNCCc1ccc(Cl)cc1)COc1ccc2ccccc2c1 (centres undefined),"inconclusive: 28.2 µM [inhibitor, partial curve]"
15,O=C(CSc1nnc2ccc3ccccc3n12)Nc1ccccc1Cl,"inconclusive: 28.2 µM [inhibitor, partial curve]"
16,COc1ccc(NC(C)c2ccccc2)cc1 (centres undefined),"inconclusive: 12.6 µM [inhibitor, partial curve]"
17,COc1cc(CN2CCC(n3nccc3NC(=O)c3ccccc3OC)CC2)ccc1F,inactive
18,CCCCNc1oc(-c2ccc(COc3ccc(OC)cc3)o2)nc1C#N,inactive
19,CC(C)(C)c1ccc(N/N=C(\C#N)S(=O)(=O)C(C)(C)C)cc1,"inconclusive: 44.7 µM [inhibitor, single point]"
20,Cc1cc(SCC(=O)N/N=C/c2ccc(O)c(O)c2)c(C)cc1Br,active: 22.4 µM
21,CCc1ccccc1N1CSC2=C(C#N)C(c3cc(OC)c(OC)cc3OC)CC(=O)N2C1 (centres undefined),"inconclusive: 14.1 µM [inhibitor, partial curve]"
22,CCCCNC(=O)/C(C#N)=C/c1ccc2c(c1)OCCO2,inactive
